Measured values: PMC6919601, “Identification of Plasmodium dipeptidyl aminopeptidase allosteric inhibitors by high throughput screening” (PLoS ONE, 2019)
Where “and” joins values, the source holds several entries; their conditions need not be identical. Equal values may be shown once. In all, about 110,000 compounds went through this assay and about 230 (0.21%) showed an effect of 50% or more. Some of the results follow.

These molecules were tested against DPAP1 (Plasmodium falciparum, UniProt Q8IIJ9) (assay: primary screen, percent inhibition; read by cleavage of a fluorogenic dipeptide substrate; higher = more effect of the substance).
Chain of DPAP1 (Q8IIJ9 whole entry, looked up): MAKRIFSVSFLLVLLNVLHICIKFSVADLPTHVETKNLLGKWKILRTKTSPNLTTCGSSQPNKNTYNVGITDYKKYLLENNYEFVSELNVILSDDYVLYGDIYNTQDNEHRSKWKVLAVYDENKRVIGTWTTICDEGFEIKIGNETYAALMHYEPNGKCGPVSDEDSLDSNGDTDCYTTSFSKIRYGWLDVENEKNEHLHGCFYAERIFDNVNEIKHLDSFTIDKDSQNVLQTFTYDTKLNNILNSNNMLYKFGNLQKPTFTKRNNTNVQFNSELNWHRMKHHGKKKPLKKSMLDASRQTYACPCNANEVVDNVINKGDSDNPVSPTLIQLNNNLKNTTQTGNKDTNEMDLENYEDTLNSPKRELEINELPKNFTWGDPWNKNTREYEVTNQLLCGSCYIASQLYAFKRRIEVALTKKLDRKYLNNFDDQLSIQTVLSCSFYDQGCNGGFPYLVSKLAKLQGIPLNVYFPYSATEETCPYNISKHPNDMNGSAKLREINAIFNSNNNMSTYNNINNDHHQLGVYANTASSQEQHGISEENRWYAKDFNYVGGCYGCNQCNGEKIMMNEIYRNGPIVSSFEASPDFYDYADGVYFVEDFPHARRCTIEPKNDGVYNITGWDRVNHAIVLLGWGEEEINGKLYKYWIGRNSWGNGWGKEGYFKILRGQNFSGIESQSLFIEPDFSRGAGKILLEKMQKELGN
Set-up: species or system P. falciparum D10 trophozoite lysates; single well
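Further: 30 min substrate incubation versus DMSO and 10 µM JCP410 controls.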

Row | SMILES | % Inhibition @ 10 uM
1 | CSc1ccc(CN2CCN(c3ncccn3)CC2)cc1 | -0.828%
2 | c1ccc2c(CN3CCCCCCC3)c[nH]c2c1 | -4.61%
3 | CCC1CCCCN1CCCNC(=O)c1ccc2nc(N3CCCCC3)sc2c1 (centres unmarked) | -0.637%
4 | COCCCNC(=O)C(C)n1c2ccccc2c2cnnc(O)c21 (centres unmarked) | -5.87%
5 | Cc1cc(C)n2nc(SCC(=O)Nc3ccc(Cl)c(Cl)c3)nc2n1 | -14.3%
6 | O=C(c1ccco1)N1CCN(C(=O)c2cc3c(s2)-c2ccccc2OC3)CC1 | -4.85%
7 | COc1ccc(C2C(C(=O)NCC3CCCO3)c3ccccc3C(=O)N2C2CCCCC2)cc1 (centres unmarked) | 9.55%
8 | C=C(C)CNc1nc(-c2ccccc2)c(-c2ccccc2)s1 | 0.131%
9 | COc1ccccc1C(=O)N/C(=C/c1ccc2c(c1)OCO2)C(=O)Nc1cccc(C(=O)O)c1 | -1.06%
10 | Cc1nnc(NC(=O)CSc2ccc3nnc(-c4cccc(F)c4)n3n2)s1 | 1.93%
11 | COC(=O)c1ccn(Cc2ccccc2Cl)n1 | -5.53%
12 | Cc1[nH]nc(NC(=O)C(C(F)(F)F)C(F)(F)F)c1-c1ccccc1 | -8.36% and -1.61%
13 | CC1CCCCN1c1nc2c(S(=O)(=O)c3ccccc3)nnn2c2ccccc12 (centres unmarked) | -4.85%
14 | COc1cc(C2C(C#N)=C(N)Oc3[nH]nc(-c4cc(C)sc4C)c32)cc(OC)c1O (centres unmarked) | 4.09%
15 | Cc1oc2c(c1C(=O)NCCc1c[nH]c3ccccc13)C(=O)c1ccccc1C2=O | -3.53%
16 | CCNC(=O)c1cc2c(=O)n3ccccc3nc2n(C2CCCCC2)c1=N | 3.6%
17 | Cn1c(=O)c2c(ncn2CCC(=N)N2CCOCC2)n(C)c1=O | 2.49%
18 | CCOc1ccccc1C(=O)Nc1ccccc1C | -7.08%
19 | O=C(Nc1ccccc1Oc1ccccc1)c1cccc(F)c1 | 4.81%
20 | COC(=O)/C(C#N)=C/c1cc2c(cc1Br)OCO2 | -6.74%
21 | Cc1cccn2c(=O)c(/C=C(\C#N)C(=O)NCc3ccco3)c(Oc3ccccc3)nc12 | -5.1%
22 | COC(=O)C1=C(C)NC(=O)CC1c1ccccc1 (centres unmarked) | 3.44%
23 | Nc1nonc1C1=NOS(=O)N1 (centres unmarked) | -8.05%
24 | O=C(Cn1c(=O)sc2ccccc21)Nc1ccc(C(=O)O)cc1 | -7.32%
25 | CCCS(=O)(=O)n1nc(-c2ccc(Br)cc2)cc1N | -0.495%
26 | O=C(NCc1cccc(Br)c1)c1cnn(-c2ccccc2)c1-n1cccc1 | 6.35%

Row | SMILES | % Inhibition @ 10 uM
27 | CCCCS(=O)(=O)c1c(C(=O)O)ccc2c1C(=O)c1ccccc1C2=O | 1.32%
28 | Cc1ccccc1CN(c1ccc(C(=O)N2CCN(C)CC2)cc1)S(C)(=O)=O | -3.43%
29 | CCOC(=O)c1ccc2[nH]c(C)c(C)c2c1 | 3.53%
30 | O=c1oc2ccc(Br)cc2cc1-c1csc(NC2CCCCC2)n1 | 4.02%
31 | Cc1c2cnn(CC(=O)N3CCC4(CC3)OCCO4)c(=O)c2c(C)n1Cc1ccc(F)cc1 | 1.22%
32 | CC1CCN(CCC(=O)N2CCCc3c2c(=O)oc2ccc(O)cc32)CC1 | 1.52%
33 | COCCNC1CCC(C(C)(C)C)CC1 (centres unmarked) | 4.55%
34 | CCOCCCNC(=O)C1CCN(c2ncnc3c2nc2n3CCCCC2)CC1 | 6.35%
35 | CCOc1cccc(/C=C2\SC(=O)N(Cc3ccc(F)cc3)C2=O)c1O | -1.6%
36 | COCCCNC(=O)CN1C(=O)CSc2ncccc21 | -6.01%
37 | CCn1c2ccccc2c2cc(C=O)ccc21 | 2.8%
38 | O=C(N/C(=C\c1ccccc1)C(=O)N1CCN(CCO)CC1)c1ccccc1 | -6.59%
39 | COc1ccccc1C1CN(c2ccccc2)N=C1c1cccs1 (centres unmarked) | -3.8%
40 | COc1ccc(-c2nc(N3CCOCC3)nc3nn4c(C)c(CCC(=O)O)c(C)nc4c23)cc1 | 9.46%
41 | COc1ccc(OCC(=O)NCCN2CCCC2)cc1 | -0.251%
42 | Clc1cccc(CSc2nnc(-c3ccc(Cl)cc3Cl)o2)c1 | 6.86%
43 | COc1ccc(C2C3=C(O)CCCC3=Nc3ccc4nc(C)ccc4c32)cc1OC (centres unmarked) | -1.19%
44 | CCOc1ccc(-c2nc(NC(=O)Cc3csc(C)n3)sc2C)cc1 | -1.11%
45 | Cc1ccccc1CNC(=O)C(C)n1ccc2cc(S(=O)(=O)N3CCCC3)ccc21 (centres unmarked) | 3.99%
46 | Cc1ccc(-c2nc3c4ccccc4nc(S)n3n2)cc1 | -7.62%
47 | COc1ccc(C)cc1NC(=O)CCC(=O)Nc1cc(C)ccc1OC | -7.14%
48 | Cc1ccc(-c2nnc3n(CCCOC(C)C)c(=O)c4ccccc4n23)s1 | -3.51%
49 | C=CCN(C(=O)c1ccccc1)c1ccc(OC)cc1 | 5.31%
50 | CC(=O)c1cc(-c2ccccc2)n(CC(=O)Nc2nc3c(C)cccc3s2)c1C | 1.47%
51 | COc1cc(CN2CCCN(C)CC2)cc(Br)c1O | -6.21%
52 | c1ccc(CNCc2ccco2)cc1 | -6.22%

Row | SMILES | % Inhibition @ 10 uM
53 | Cc1nc(-c2ccccc2)nc2[nH]c(=O)n(-c3ccccc3)c(=O)c12 | -5.62%
54 | CN(Cc1ccco1)C(=O)C1CCCN(c2ncnc3c2nc2n3CCCCC2)C1 (centres unmarked) | 6.99%
55 | CCOc1ccccc1N(CC(=O)Nc1ccccc1-c1ccccc1)S(C)(=O)=O | -7.5%
56 | CN1CCC(N(C)CCc2ccccc2)CC1 | 6.41%
57 | COc1cc(C2C3=C(CC(C)(C)CC3=O)OC3=C2C(=O)CC(C)(C)C3)ccc1O | -4.94%
58 | Cc1cc(CNC(=O)COc2c(F)c(F)cc(F)c2F)c2ccccc2n1 | -6.42%
59 | Cc1cc(C)c2c(=O)cc(C(F)(F)F)oc2n1 | 3.38%
60 | Cc1nc2ccccc2c2oc(C(=O)NCCc3ccsc3)cc12 | -13.2%
61 | COc1ccccc1-c1cc(-c2ccccc2)nc(SCC(=O)c2ccc(-c3ccccc3)cc2)c1C#N | -0.736%
62 | OC1(c2ccc(Cl)cc2)CCN(Cc2ccc(Cl)c(Cl)c2)CC1 | -2.21%
63 | COc1cccc(S(=O)(=O)NCc2ccc(C(=O)Nc3ccc(C)cc3)cc2)c1 | 0.389%
64 | Cc1ccc(C(=O)Cn2nc(-c3ccccc3)c3c(c2=O)CCCC3)cc1 | 4%
65 | COC(=O)c1c(NC(=O)c2ccccc2)sc2c1CCCC2 | -0.414%
66 | CC(C(=O)O)n1ccc2cc(S(=O)(=O)N3CCCC3)ccc21 (centres unmarked) | 1.63%
67 | CS(=O)(=O)c1ccc2nc(NC(=O)C3c4ccccc4Oc4ccccc43)sc2c1 | 0.777%
68 | CCCC(=O)n1nc(-c2ccco2)nc1NCc1ccccc1 | 3.51%
69 | CCc1ccc(C(=O)NC(Cc2c[nH]c3ccccc23)C(=O)O)cc1 (centres unmarked) | -1.47%
70 | COc1ccc(CCN2C(=O)c3c(C)nc4ccccc4c3C2=O)cc1 | -0.228%
71 | COc1ccc(-c2c(C#N)c(N)nc(OC)c2C#N)cc1 | -3.65%
72 | O=C(NC1CCCCC1)c1ccc(-n2cccc2)cc1 | 2.8%
73 | CCC1=NN(C(=O)COc2cc(C)cc(C)c2)C(O)(C(F)(F)F)C1 (centres unmarked) | 0.472%
74 | CC(Oc1ccc(Cl)cc1Cl)C(=O)NC1CCCC1 (centres unmarked) | -4.13%
75 | CC1(C)CC(=O)C2=C(C1)N(CCN1CCOCC1)C1=C(C(=O)CC(C)(C)C1)C2c1ccc(Cl)cc1 | 1.08%
76 | O=C(Cn1nnc(-c2ccccc2F)n1)NCCc1ccccc1 | -8.85%
77 | CCCCNC(=O)c1cnn2c1NC(c1ccc(Br)cc1)CC2C(F)(F)F (centres unmarked) | -4.39%
78 | C=CCn1c(=N)c(C(=O)NCCc2ccccc2)cc2c(=O)n3ccccc3nc21 | 3.6%

Row | SMILES | % Inhibition @ 10 uM
79 | CC(C)CCNc1cnn(C23CC4CC(CC(C4)C2C(=O)O)C3)c(=O)c1Cl (centres unmarked) | 4.33%
80 | O=C1CC(C(=O)Nc2ccccc2)NC(N2CCOCC2)=N1 (centres unmarked) | -2.65%
81 | O=C(c1cccnc1Cl)N(Cc1ccccc1)Cc1ccccc1 | 0.64%
82 | O=[N+]([O-])c1ccc(-n2c3ccccc3c3ccccc32)cc1 | 0.00178%
83 | O=C(NC1CCCC1)c1nc(-c2ccc(Cl)cc2)n2c1CCCCC2 | 6.56%
84 | Cc1ccc(-c2c(C#N)cnc3ncnn23)cc1 | -2.56%
85 | CCC1(CC)Cc2ccccc2C2=C(C(=O)N3CCCCC3)C(=O)C(=O)N21 | -11%
86 | COc1ccccc1-c1cc(C(=O)NCCCn2ccnc2)no1 | 1.37%
87 | COc1ccc(NC(=O)c2ccc(OC(F)F)cc2)cc1OC | -1.63%
88 | Cc1ccc(S(=O)(=O)c2nnn3c2nc(N2CCC4(CC2)OCCO4)c2ccccc23)cc1 | -1.07%
89 | CCC1CCC(N2CCN(CCOCCO)CC2)CC1 (centres unmarked) | -5.31%
90 | c1ccc(CSc2nc3ccccc3s2)nc1 | 3.05%
91 | CC(C)COc1ccc2c(c1)c1c3c(nccn32)CCC1 | 4.54%
92 | CC1CCC(C(C)C)C(OCC(O)CN2CCCCC2)C1 (centres unmarked) | -2.44%
93 | CCCCCO/C(O)=C1/C(C)=NC2=C(C(=O)CC(C)(C)C2)C1c1ccccc1 (centres unmarked) | 25.5%
94 | COc1cc(OC)cc(C(=O)Nc2ccc(OC)c(OC)c2)c1 | 0.215%
95 | Cc1cc(O)n2nc(NC(=O)C3CC3)nc2n1 | -5.15%
96 | CC(C)C[C@H](NC(=O)N1CCOCC1)C(=O)N[C@H](/C=C/S(=O)(=O)c1ccccc1)CCc1ccc(O)cc1 | -5.2%
97 | CN1CCCN(Cc2cccnc2)CC1 | -0.828%
98 | COc1ccc(CCN2C(=O)c3[nH]nc(-c4ccccc4O)c3C2c2cccc(O)c2)cc1 (centres unmarked) | -3.12%
99 | COc1ccc(NC(=O)c2ccc(N(C)S(=O)(=O)c3ccccc3)cc2)cc1Cl | -4.43%
100 | CCOc1ccc(C(=O)Nc2ccc(C(C)=O)cc2)cc1Br | 4.44%
101 | CC(Oc1ccc(Cl)cc1Cl)C(=O)N1CCN(Cc2ccc3c(c2)OCO3)CC1 (centres unmarked) | 3.67%
